# Measured values as given in PubChem BioAssay AID504832 (National Center for Advancing Translational Sciences (NCATS), 2011).
# Among all 310,000 compounds or so, about 18,000 (5.8%) were called active. This list was built around the results that the source calls inconclusive (neither active nor inactive); the mix of calls is not that of the screen. Calls come from the whole dose curve; as a rule, active = well fitted inhibition curve with a large enough effect; inconclusive = small, poorly fitted or top-dose-only effect, or another doubt; inactive = no such curve, though single readings can be large or run the other way. No potency is given beside an inconclusive call; the fits are too rough.
# Experiment: Primary qHTS for delayed death inhibitors of the malarial parasite plastid, 48 hour incubation
# Conditions: P. falciparum luciferase growth in erythrocytes; series mostly up to 28.7 µM
# Summary of the method: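 Compounds are pin-transferred into medium, infected erythrocytes (2% hematocrit, 0.1% parasitemia final) are added, and plates sit one parasite generation at 37 C in 5% CO2. Detection reagent is then added and luminescence measured.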
# Potency is the fitted concentration of half-maximal effect; tags give direction and shape of the fitted curve.
row,Structure (SMILES),Potency
1,CC(C)OCCCNCC(O)c1ccccc1 (stereo unspecified),inactive
2,COc1ccc(CN(C)C(=O)C2CCN(C(=O)Nc3ccccc3)CC2)cc1OC,"inconclusive [inhibitor, single point]"
3,COc1cc2[nH]c(=S)nc(NC3CCCCCC3)c2cc1OC,"inconclusive [inhibitor, partial curve, poor fit]"
4,COc1ccc(Cn2nnnc2C(c2cc3cc(C)ccc3[nH]c2=O)N2CCN(C)CC2)cc1 (stereo unspecified),"inconclusive [inhibitor, partial curve, poor fit]"
5,CCOC(=O)c1[nH]c2ccc(OCC)cc2c1NC(=O)CN1CCN(c2ccccc2)CC1,"inconclusive [inhibitor, single point]"
6,O=C(Nc1cccc(C(=O)NC2CC2)c1)c1ccc(F)c(S(=O)(=O)N2CCOCC2)c1,"inconclusive [inhibitor, partial curve, poor fit]"
7,CC(C(c1cccs1)c1c(N)n(C)c(=O)n(C)c1=O)[N+](=O)[O-] (stereo unspecified),"inconclusive [inhibitor, single point]"
8,COc1ccc(C(=O)Nc2ccc(C)cn2)cc1S(=O)(=O)N1CCCc2ccccc21,active: 11.7 µM
9,COc1ccc(CN(C)C(=O)c2cc(S(=O)(=O)N3CCCCCC3)ccc2OC)cc1OC,"inconclusive [inhibitor, partial curve]"
10,O=C(c1ccccc1)c1c[nH]c(C(=O)C(Cl)(Cl)Cl)c1,"inconclusive [inhibitor, partial curve]"
11,C/C(CC(=O)Nc1ccc(C)c(Cl)c1)=N\NC(=O)Cc1cccs1,inactive
12,COc1cc(C(=O)Nc2ccc3nc(N4CCN(C)CC4)cc(C)c3c2)cc(OC)c1OC,active: 0.329 µM
13,COc1ccc(CCNC(=O)C2CCC(=O)N2S(=O)(=O)c2ccc(C)cc2)cc1 (stereo unspecified),inactive
14,COc1ccc(-c2nc3ccccn3c2CN2CCN(c3ccccc3F)CC2)cc1,"inconclusive [inhibitor, single point]"
15,CCN(Cc1ccc(C#CCCO)cc1)CC1CCCN(CCc2cccc(OC)c2)C1 (stereo unspecified),"inconclusive [inhibitor, partial curve]"
16,Cc1ccc(-c2nnn(CC(=O)N3CCN(c4nc5ccccc5s4)CC3)n2)cc1,inactive
17,CCN1CCCc2cc(CN(CCN3CCOCC3)C(=S)Nc3ccc(OC)c(Cl)c3)ccc21,"inconclusive [inhibitor, single point]"
18,C=C1C(=O)C=C2CN(C(=O)c3ccccc3)[C@@](Cc3ccc(F)cc3)(C(=O)OC)[C@@H]12,"inconclusive [inhibitor, partial curve]"
19,COc1ccc(NC(=O)CSc2nc3ccccc3nc2N2CCCC2)cc1Cl,"inconclusive [inhibitor, single point]"
20,CCN(CC)C(=O)CN(c1cc2c(cc1OC)oc1ccccc12)S(=O)(=O)c1ccc(C)cc1,active: 11.7 µM
21,CC(C1CC1)N(Cc1ccccc1)C(=S)Nc1ccccc1Cl (stereo unspecified),"inconclusive [inhibitor, partial curve]"
22,COc1ccccc1NC(=O)/C=C/c1ccc(OC)c(S(=O)(=O)N2CCOCC2)c1,active: 13.1 µM
23,CC(=O)CCc1ccc(OC(=O)c2cccnc2)cc1,"inconclusive [inhibitor, partial curve, poor fit]"

row,Structure (SMILES),Potency
1,Cc1ccc(-n2cc(CNCCc3ncc(C)[nH]3)c(-c3ccc(F)cc3)n2)cc1,active: 1.65 µM
2,CC(=O)c1ccc(NC(=O)C2CCN(S(=O)(=O)c3cccs3)CC2)cc1,"inconclusive [inhibitor, single point]"
3,O=C(CN1CCOCC1)Nc1ncc(Cc2ccccc2Cl)s1,inactive
4,Cc1ccc(Cl)cc1N(CC(=O)NC(C)c1ccccc1)S(C)(=O)=O (stereo unspecified),inactive
5,Cc1cc(N2C(=O)c3ccccc3C2=O)n(C)n1,"inconclusive [inhibitor, full curve, poor fit]"
6,CC(C)Oc1ccccc1NC(=O)CSc1nccn1C,inactive
7,CC(C)c1ccc(C(=O)NC(=S)NCc2cccnc2)cc1,inactive
8,CCOc1ccc(/C=N/NC(=O)NC23CC4CC(CC(C4)C2)C3)cc1O,"inconclusive [inhibitor, partial curve, poor fit]"
9,CCOc1nc(NCc2ccco2)nc(Nc2ccc(OC)cc2)n1,inactive
10,CN(CC(=O)Nc1ccc(Cl)cc1)S(=O)(=O)c1ccc2c(c1)n(C)c(=O)c(=O)n2C,inactive
11,O=C(C1=C[C@H](c2ccc3c(c2)OCO3)C[C@H](OCc2ccc(CO)cc2)O1)N1CCN(Cc2ccc3c(c2)OCO3)CC1,active: 4.15 µM
12,COc1ccc(N(Cc2ccccc2)C(=O)CSc2nnc(Cn3nnc4ccccc43)o2)cc1,"inconclusive [inhibitor, partial curve]"
13,NS(=O)(=O)c1ccc(CCNC(=O)COC(=O)CC(c2ccccc2)c2ccccc2)cc1,inactive
14,CC(C)C(=O)N1CCN(c2ccc(NC(=O)c3ccco3)cc2Cl)CC1,active: 9.28 µM
15,CC(C)c1ccc(S(=O)(=O)N2CCC(C(=O)NCc3ccco3)CC2)cc1,active: 3.29 µM
16,Cc1cc(NCCOCCO)n2c(nc3ccccc32)c1C#N,"inconclusive [inhibitor, single point]"
17,Cc1ccc(C(=O)c2cccc(N)c2)cc1C,inactive
18,Cc1ccc(OCC(=O)N(Cc2ccccc2)c2c(N)n(Cc3ccccc3)c(=O)[nH]c2=O)c(C)c1,"inconclusive [inhibitor, full curve]"
19,Cc1noc(C)c1S(=O)(=O)N1CCN(S(=O)(=O)c2ccccc2C#N)CC1,inactive
20,COc1ccc(C(=O)Cn2nnc(-c3ccccc3NC(=O)C3CCCCC3)n2)cc1,active: 11.7 µM
21,O=C(NC(=S)Nc1ccc2c(c1)OCO2)c1ccccc1,inactive
22,CCC(O)c1cc2c(cc1NC(=O)c1ccc(C)cc1)OCCO2 (stereo unspecified),inactive
23,COCC(=O)NC1CC(C)(C)Cc2c1cnn2-c1ccc(F)cc1 (stereo unspecified),"inconclusive [inhibitor, single point]"
